Where a chain is given by its changes, count along the chain named. These are yes or no findings as the source states them, for the method shown. For some assays here: Binding seen in cells or lysates may run through a third protein. Some entries that bind do so weakly or less than the wild type. For some assays here: Sequences can lack the tags named with a protein.
Legend:
[1] = target: FKRP32-494 (yeast two-hybrid fusions N-LexA-FKRP32-494-C and N-GAL4-FKRP32-494-C) (human) (UniProt Q9H9S5); experiment: two-hybrid; pairwise; LexA-DBD bait (pB27) and Gal4-AD prey (pP7) in diploid yeast; growth on DO-3 medium lacking Trp, Leu and His (HIS3 reporter)
[2] = target: Full length FKRP, C-terminally tagged with HA (FKRP-HA) or Myc (FKRP-Myc) (human) (UniProt Q9H9S5); experiment: condition: only lysates of separate solo transfections mixed after lysis (RT, 30 min); co-IP; lysates of separate solo transfections of FKRP-Myc and FKRP-HA (COS-7, 5 mM NEM) mixed and incubated at RT for 30 min, then anti-Myc precipitation; blot with anti-HA
[3] = target: Full length FKRP, C-terminally tagged with HA (FKRP-HA) or Myc (FKRP-Myc) (human) (UniProt Q9H9S5); experiment: co-IP; COS-7 cells co-transfected with FKRP-Myc and FKRP-HA; lysate with 5 mM NEM; agarose-coupled anti-Myc antibody, 4°C, 45 min; reducing SDS-PAGE, blot with anti-HA
FKRP-Cys6Ser (human) = FKRP-Cys6Ser (human) (UniProt Q9H9S5); experiment: SDS-PAGE (non-reducing and reducing) with Western blot; cleared COS-7 lysates prepared with 5 mM NEM; untreated or reduced with 330-400 mM DTT at RT for 30 min; 4-12% gel; detection with FKRP207 antibody
FKRP-157-Cys6Ser (human) = FKRP-157-Cys6Ser (human) (UniProt Q9H9S5); experiment: as above

B1: FKRP32-494 (yeast two-hybrid fusions N-LexA-FKRP32-494-C and N-GAL4-FKRP32-494-C) (domain or fragment, UniProt Q9H9S5 32-494)
chain: RNSRARGPRRASAAGPRVTVLVREFEAFDNAVPELVDSFLQQDPAQPVVVAADTLPYPPLALPRIPNVRLALLQPALDRPAAASRPETYVATEFVALVPDGARAEAPGLLERMVEALRAGSARLVAAPVATANPARCLALNVSLREWTARYGAAPAAPRCDALDGDAVVLLRARDLFNLSAPLARPVGTSLFLQTALRGWAVQLLDLTFAAARQPPLATAHARWKAEREGRARRAALLRALGIRLVSWEGGRLEWFGCNKETTRCFGTVVGDTPAYLYEERWTPPCCLRALRETARYVVGVLEAAGVRYWLEGGSLLGAARHGDIIPWDYDVDLGIYLEDVGNCEQLRGAEAGSVVDERGFVWEKAVEGDFFRVQYSESNHLHVDLWPFYPRNGVMTKDTWLDHRQDVEFPEHFLQPLVPLPFAGFVAQAPNNYRRFLELKFGPGVIENPQYPNPALLSLTGS
- binding [1]: binds

B2: Full length FKRP, C-terminally tagged with HA (FKRP-HA) or Myc (FKRP-Myc) (protein, UniProt Q9H9S5 1-495)
chain: MRLTRCQAALAAAITLNLLVLFYVSWLQHQPRNSRARGPRRASAAGPRVTVLVREFEAFDNAVPELVDSFLQQDPAQPVVVAADTLPYPPLALPRIPNVRLALLQPALDRPAAASRPETYVATEFVALVPDGARAEAPGLLERMVEALRAGSARLVAAPVATANPARCLALNVSLREWTARYGAAPAAPRCDALDGDAVVLLRARDLFNLSAPLARPVGTSLFLQTALRGWAVQLLDLTFAAARQPPLATAHARWKAEREGRARRAALLRALGIRLVSWEGGRLEWFGCNKETTRCFGTVVGDTPAYLYEERWTPPCCLRALRETARYVVGVLEAAGVRYWLEGGSLLGAARHGDIIPWDYDVDLGIYLEDVGNCEQLRGAEAGSVVDERGFVWEKAVEGDFFRVQYSESNHLHVDLWPFYPRNGVMTKDTWLDHRQDVEFPEHFLQPLVPLPFAGFVAQAPNNYRRFLELKFGPGVIENPQYPNPALLSLTGSG
- binding [2]: no binding
- binding [3]: binds

B3: FKRP-Cys6Ser (protein, UniProt Q9H9S5 1-495)
chain: B2 chain with C6S
- binding (FKRP-Cys6Ser (human)): no binding

B4: FKRP-157-Cys6Ser (domain or fragment, UniProt Q9H9S5 1-157)
chain: MRLTRSQAALAAAITLNLLVLFYVSWLQHQPRNSRARGPRRASAAGPRVTVLVREFEAFDNAVPELVDSFLQQDPAQPVVVAADTLPYPPLALPRIPNVRLALLQPALDRPAAASRPETYVATEFVALVPDGARAEAPGLLERMVEALRAGSARLVA
- binding (FKRP-157-Cys6Ser (human)): no binding
